Assay results published in PubChem BioAssay AID360 (National Center for Advancing Translational Sciences (NCATS), 2006).
About 550 (1.1%) of roughly 48,000 compounds were called active. Another 4% or so got no clear call; they are omitted. Rule as the data show it: active = potency below about 15 µM; inconclusive = mostly about 16 µM to 33 µM; inactive = weaker than that. This is one part of the list.

Each compound was assayed against Lysosomal acid glucosylceramidase (Homo sapiens) (UniProt P04062) (assay: Glucocerebrosidase). Conditions: purified enzyme, resorufin glucoside fluorescence (screen aimed at inhibitors), 20 min.
Chain of UniProt P04062 (P04062 whole entry, looked up): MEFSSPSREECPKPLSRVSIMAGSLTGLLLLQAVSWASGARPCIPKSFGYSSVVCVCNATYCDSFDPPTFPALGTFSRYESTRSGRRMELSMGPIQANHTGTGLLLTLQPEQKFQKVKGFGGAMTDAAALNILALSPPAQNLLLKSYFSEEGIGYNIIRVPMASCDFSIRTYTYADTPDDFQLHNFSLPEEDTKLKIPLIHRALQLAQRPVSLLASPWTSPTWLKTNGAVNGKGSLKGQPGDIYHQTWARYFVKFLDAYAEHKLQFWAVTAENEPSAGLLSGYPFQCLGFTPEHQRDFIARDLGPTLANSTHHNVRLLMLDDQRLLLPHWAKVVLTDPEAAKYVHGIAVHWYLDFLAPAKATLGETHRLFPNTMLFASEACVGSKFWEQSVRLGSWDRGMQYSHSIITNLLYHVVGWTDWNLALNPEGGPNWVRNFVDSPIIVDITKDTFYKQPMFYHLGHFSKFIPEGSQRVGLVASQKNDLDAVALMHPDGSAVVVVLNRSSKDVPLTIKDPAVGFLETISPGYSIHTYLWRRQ
How it was run: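 Normal human glucocerebrosidase (0.2 nM final) was assayed with resorufin β-D-glucopyranoside (30 uM final) in 50mM citric acid/KH2PO4, 10mM sodium taurocholate, 0.01% tween-20, pH 5.9. Compounds were titrated; fluorescence (Ex 548, Em 600) read after 20 min at RT.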
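Also: the screen sought inhibitors.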
Potency is read from the fitted curve at half-maximal effect.

`O=C(Nc1nncs1)c1ccccc1NS(=O)(=O)c1cccs1` was tested. Which Potency did it give?
The Potency was inactive: > 15.4 µM.

Which Potency does the source give for `O=C(Cn1ncc2c(=O)oc3ccccc3c21)Nc1nc2ccccc2s1` here?
Its Potency is inactive: > 76.9 µM.

`COCCNC(=O)C(c1ccc(C)cc1)N(C(=O)CCC(=O)Nc1ccccn1)C1CCCC1` (stereo unspecified) was tested. Which Potency did it give?
The Potency was inactive: > 76.9 µM.

How did the Potency turn out when `COc1cc(C2c3c(oc4ccccc4c3=O)C(=O)N2Cc2cccnc2)cc(OC)c1OC` (stereo unspecified) was run?
The Potency was inactive: > 76.9 µM.

With `Cc1ccc(NC(=O)CCCCCC2NC(=O)NC2C)cc1` (stereo unspecified) as the compound, how does the Potency read?
Its Potency is inactive: > 76.9 µM.

`Cc1cc(C)c(NC(=O)CCCOC(=O)C2=COCCO2)c(C)c1` was tested. Which Potency did it give?
The Potency was inactive: > 76.9 µM.

For `Cn1c(=O)n(CC(=O)Nc2cccnc2)c2ccccc21`, which Potency is on record?
The Potency was inactive: > 76.9 µM.

`CCCC(=O)Nc1ccc(S(=O)(=O)Nc2cc(C)nc(C)n2)cc1` was tested. Which Potency did it give?
The Potency was inactive: > 76.9 µM.

`Cc1ccc(C(=O)N2CCOCC2)cc1Cl` was tested. Which Potency did it give?
Its Potency is inactive: > 76.9 µM.

`CCOC(=O)c1cc(=O)n2[nH]c(-c3ccc(C)cc3)cc2n1` was tested. Which Potency did it give?
Its Potency is inactive: > 76.9 µM.

For `Cc1ccc(-n2c(-c3ccncc3)nnc2-c2ccco2)cc1`, which Potency is on record?
Its Potency is inactive: > 76.9 µM.

`CCOC(=O)N1CCN(CCC(=O)c2ccc(Cl)cc2)CC1` was tested. Which Potency did it give?
The Potency was inactive: > 76.9 µM.

For `O=c1cc(-c2ccccc2)c2c([nH]1)CCCC2`, which Potency is on record?
Its Potency is inactive: > 76.9 µM.

Which Potency does the source give for `N=c1n(CCN2CCCC2)c2ccccc2n1CC(O)c1ccco1` (stereo unspecified) here?
Its Potency is inactive: > 76.9 µM.

With `Cc1cc(Cl)ccc1OCCCC(=O)N1CCOCC1` as the compound, how does the Potency read?
Its Potency is inactive: > 76.9 µM.

How did the Potency turn out when `CS(=O)(=O)N1CCCC(C(=O)NCc2ccc(F)cc2Cl)C1` (stereo unspecified) was run?
The Potency was inactive: > 76.9 µM.

With `Cc1[nH]n(-c2ccccc2)c(=O)c1/C=N/c1ccccn1` as the compound, how does the Potency read?
The Potency was inactive: > 76.9 µM.

With `Cc1ccc2nc3sc(C(=O)N4CCOCC4)c(N)c3cc2c1` as the compound, how does the Potency read?
Its Potency is inactive: > 76.9 µM.

`CCOC(=O)C1CCN(CC(O)COc2ccc(C(=O)CC)cc2)CC1` (stereo unspecified) was tested. Which Potency did it give?
Its Potency is inactive: > 76.9 µM.

Which Potency does the source give for `CSc1ccccc1NC(=O)CN(Cc1ccc(Cl)cc1)S(C)(=O)=O` here?
The Potency was inactive: > 76.9 µM.

How did the Potency turn out when `Cc1nn(Cc2ccc(Cl)cc2)c(C)c1NC(=O)c1cc(-c2ccco2)on1` was run?
The Potency was inactive: > 76.9 µM.

For `Cn1c(=O)cc(OCCCC(=O)Nc2cccnc2)c2ccccc21`, which Potency is on record?
The Potency was inactive: > 76.9 µM.

`O=C(CN1CCc2ccccc2C1)N1CCN(S(=O)(=O)c2ccccc2)CC1` was tested. Which Potency did it give?
Its Potency is inactive: > 76.9 µM.

How did the Potency turn out when `O=C(Nc1ccccc1-c1nnn(CC(=O)N2CCCc3ccccc32)n1)c1ccco1` was run?
Its Potency is inactive: > 76.9 µM.

How did the Potency turn out when `CCn1nc(C(=O)OCC(=O)c2cc(C)n(Cc3cccs3)c2C)c2ccccc2c1=O` was run?
The Potency was inactive: > 76.9 µM.

With `COc1cc(-c2nnc3sc(C4CCCCC4)nn23)cc(OC)c1OC` as the compound, how does the Potency read?
The Potency was active: 7 µM.

Which Potency does the source give for `CCOC(=O)C1CCCN(CC(=O)NC2CC2)C1` (stereo unspecified) here?
The Potency was inactive: > 76.9 µM.

`CCCn1c(SCCN2C(=O)c3ccccc3C2=O)n[nH]c1=O` was tested. Which Potency did it give?
Its Potency is inactive: > 76.9 µM.

How did the Potency turn out when `CC(=O)c1c(C)[nH]c(C(=O)N2CCCCCC2)c1C` was run?
The Potency was inactive: > 76.9 µM.

With `Cc1cccc(NC(=O)c2cc3c(n(-c4ccccc4)c2=O)CCCC3=O)n1` as the compound, how does the Potency read?
The Potency was inactive: > 76.9 µM.

With `CCn1nnc(NC(=O)COc2ccc(C3CCCCC3)cc2)n1` as the compound, how does the Potency read?
Its Potency is inactive: > 76.9 µM.

For `O=C1CCCCCN1CSc1nc2ccccc2s1`, which Potency is on record?
The Potency was inactive: > 76.9 µM.

`COC(=O)c1ccc(S(=O)(=O)NCc2cccc(OC)c2)n1C` was tested. Which Potency did it give?
Its Potency is inactive: > 76.9 µM.

`O=S(=O)(NCCOc1ccc(F)cc1)c1ccc2c(c1)OCCO2` was tested. Which Potency did it give?
The Potency was inactive: > 76.9 µM.

With `CCN1CCCC1CNS(=O)(=O)c1ccc(C(=O)Nc2ccccc2)cc1` (stereo unspecified) as the compound, how does the Potency read?
Its Potency is inactive: > 76.9 µM.

For `CC(C)C1(C)C(=O)N=C2c3ccccc3C(=O)N21` (stereo unspecified), which Potency is on record?
Its Potency is inactive: > 76.9 µM.

Which Potency does the source give for `CS(=O)(=O)N1CCCC(C(=O)NCc2ccccc2Cl)C1` (stereo unspecified) here?
Its Potency is inactive: > 76.9 µM.

With `CN1C(=S)SC(C)(C)C1NO` (stereo unspecified) as the compound, how does the Potency read?
Its Potency is inactive: > 76.9 µM.

Which Potency does the source give for `COc1ccc(OC)c(NC(=O)CSc2nnc(N)s2)c1` here?
Its Potency is inactive: > 76.9 µM.

For `CC(C)C(OC(=O)c1cccs1)C(=O)NCc1ccco1` (stereo unspecified), which Potency is on record?
Its Potency is inactive: > 76.9 µM.

For `CCc1ccc(N2CCCn3c2nc2c3c(=O)n(CCN3CCOCC3)c(=O)n2C)cc1`, which Potency is on record?
The Potency was inactive: > 76.9 µM.

`CCOc1ccc(NC(=O)c2ccccc2CO)cc1` was tested. Which Potency did it give?
Its Potency is inactive: > 76.9 µM.

With `Cc1nc(NCCCn2ccnc2)c2oc3ccccc3c2n1` as the compound, how does the Potency read?
The Potency was inactive: > 76.9 µM.

Which Potency does the source give for `O=C(CSc1ncn[nH]1)c1ccc2c(c1)OCCO2` here?
Its Potency is inactive: > 76.9 µM.

Which Potency does the source give for `CC(=O)N1CCN(c2ccc(NC(=O)c3ccc(C(C)(C)C)cc3)cc2)CC1` here?
The Potency was “inactive”.

`Cc1ccc(S(=O)(=O)N2CCCC2C(=O)OCC(=O)Nc2ccc3c(c2)OCO3)cc1` (stereo unspecified) was tested. Which Potency did it give?
The Potency was inactive: > 76.9 µM.

For `COc1ccc(Cn2nnnc2C(c2cccs2)N2CCOCC2)cc1` (stereo unspecified), which Potency is on record?
Its Potency is inactive: > 76.9 µM.

With `N#CC1=C(N)N(c2ccc(Br)cc2)C2=C(C(=O)CCC2)C1c1cccnc1` (stereo unspecified) as the compound, how does the Potency read?
Its Potency is inactive: > 76.9 µM.

`Cc1c(O)ccc2c3c(c(=O)oc12)CCCC3` was tested. Which Potency did it give?
Its Potency is inactive: > 76.9 µM.

With `O=C(CSc1nnc(-c2cccs2)n1CC1CCCO1)c1cc2ccccc2o1` (stereo unspecified) as the compound, how does the Potency read?
Its Potency is inactive: > 76.9 µM.

How did the Potency turn out when `O=C(Cn1nnc(-c2ccccc2NC(=O)c2ccco2)n1)NC1CCCCC1` was run?
Its Potency is inactive: > 76.9 µM.

For `COc1cccc(Nc2ncnc3c2cnn3C)c1`, which Potency is on record?
The Potency was inactive: > 76.9 µM.

With `O=C(CSc1ncnc2c1oc1ccccc12)NCC1CCCO1` (stereo unspecified) as the compound, how does the Potency read?
The Potency was inactive: > 76.9 µM.

With `CC(C)c1ccccc1N1CC(C(=O)O)CC1=O` (stereo unspecified) as the compound, how does the Potency read?
The Potency was inactive: > 76.9 µM.

For `O=C(CCn1nnc(-c2cccs2)n1)N1CCc2ccccc2C1`, which Potency is on record?
The Potency was inactive: > 76.9 µM.

With `CCC(=O)Nc1ccccc1Oc1ccccc1` as the compound, how does the Potency read?
The Potency was inactive: > 76.9 µM.

Which Potency does the source give for `CC(=O)Nc1sc(C)c(C)c1C(=O)OC1CCOC1=O` (stereo unspecified) here?
Its Potency is inactive: > 76.9 µM.

How did the Potency turn out when `Cc1ccnc(N2CCC(C(=O)Nc3ccc(Oc4ccccc4)cc3)CC2)n1` was run?
Its Potency is inactive: > 76.9 µM.

Which Potency does the source give for `CCOc1nc(C#N)nc(N2CCCCC2)n1` here?
Its Potency is inactive: > 76.9 µM.

Which Potency does the source give for `FC(F)(F)c1ccccc1Nc1nccs1` here?
The Potency was inactive: > 76.9 µM.

How did the Potency turn out when `O=C1C2CCCN2C(c2ccc(Cl)cc2)N1c1nccs1` (stereo unspecified) was run?
The Potency was inactive: > 76.9 µM.
